Test results reported in PMC12136788.
Some of the results follow.

T1: UNK ZnF1-3 (human, UniProt Q9C0B0 31-174)
T1 sequence: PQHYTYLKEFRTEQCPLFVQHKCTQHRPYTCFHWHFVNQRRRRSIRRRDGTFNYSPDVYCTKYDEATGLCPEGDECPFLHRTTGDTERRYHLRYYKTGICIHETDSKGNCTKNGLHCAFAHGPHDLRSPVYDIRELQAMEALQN

B1: chr6:146598974:146598975:+_ENSMUSG00000030291_ENSMUST00000032429|mus_hu|FALSE|FALSE (ssRNA)
RNA: GGGAGUUCUACAGUCCGACGAUCCUGAUUCAAUCAUGAUUUUAUAAGCUUAUCAAGAGUGAAAAUAGAAGACUAUUAAAAAUAGCUAAAAAGGUAAUGUGUCAUAGUGUUUAAUGUUUCUGUAAUUGUUGGUAAGGCUUGUAUCAACAGAGGAUUGAGCAUCA
B2: 18861418_18861648_5666_CDS_ENSG00000157106_ENST00000446231|human|control|control (ssRNA)
RNA: GGGAGUUCUACAGUCCGACGAUCCAGCCUAGGGUCAUCCUCAUCUAAAGGAAUUUGACCAGCGUUGAGUUUAAGGAAAGUAAAGUAUGCACUGCAAGAGAGUUUGUACAGGCUGAAUAUUCUAUCUACAACUUUCCUCCACACCAACAGAGGAUUGAGCAUCA
B3: chr8:74585381:74585382:-_ENSG00000040341_ENST00000355780|hu_hu|FALSE|FALSE (ssRNA)
RNA: GGGAGUUCUACAGUCCGACGAUCAGGCACUGGGCAAUGAUACCUCUGAUUGUACAUGCCCCGAAAGUUGUAAUUAGCUCUAUAAUUUGGGAAUGGCUUUGGAUCUAAUGGCCUGUAGAUGGCAGGCUCUCCCCUUUUCAUAGCCAACAGAGGAUUGAGCAUCA
B4: chr1:225611761:225611762:-_ENSG00000143815_ENST00000272163|hu_mus|hu_hu_hu_mus_True|78_78 (ssRNA)
RNA: GGGAGUUCUACAGUCCGACGAUCCCAGGCCAUCGGCCUCUGACCACUUCACCCUCAGCAAAUUUCCUACUUGGCAUUUUCUAAAAUUAGUCUGGCCGCGCUCCGGCGGGAACUCCAGCCACUCCAGGACAGUCACCAGCAGCCCAACAGAGGAUUGAGCAUCA
B5: 36909150_36920067_489_CDS_ENSMUSG00000024811_ENSMUST00000025729|mouse|control|control (ssRNA)
RNA: GGGAGUUCUACAGUCCGACGAUCACCGUUCUGAAGAAGAUAUUCAACUACAUCCUUCCGUCCAAAACCUGCGGCGAAGUGGAGCGGGGUGGACUUCCUGCCCGCCGUGUCGCGGCUGUUCACCUUCUCGGGCGUCACCAGCCUCAACAGAGGAUUGAGCAUCA
B6: chr12:67699843:67699844:+_ENSG00000111530_ENST00000544619|hu_hu|FALSE|FALSE (ssRNA)
RNA: GGGAGUUCUACAGUCCGACGAUCAAUAAACUGACCUACUACAGCUGGUCCCUCUUUAGGGCAUGCUCGAGUAAGGGCAGCUACACAUUUGGCAAUGGAAUAAUAAGACUGCUUAUGAGUAAGAGCUGUGCUCUGAGAGUAAACCAACAGAGGAUUGAGCAUCA
B7: 118343347_118343467_1556_CDS_ENSG00000118058_ENST00000534358|human|control|control (ssRNA)
RNA: GGGAGUUCUACAGUCCGACGAUCAUACCUUCUGCUUCUCCUAUCAUUACUCUCAUUUUCUGGGGACUGGGAAAUGGGCAGUGGAGGAUGAACUUCAGGGGUAUCGCUCCGCUCCUCAGGAAGUACCUGAAUCUCCUCAGAAGCCAACAGAGGAUUGAGCAUCA
B8: 108559751_108563533_1152_CDS_ENSMUSG00000032846_ENSMUST00000105097|mouse|control|control (ssRNA)
RNA: GGGAGUUCUACAGUCCGACGAUCGGCCCCAUUGGAGUCUCUCAUCUUCAACAUCUCCCGCACCUUUGCAAAGAGCAUGUUGAGCUGCUUUCCUGACCCGUGGUACCCUCCCUGGGAGAGGAACACUUUCACCUGUUCUUGCACCAACAGAGGAUUGAGCAUCA
B9: chr4:17845017:17845018:+_ENSG00000109805_ENST00000514176|hu_mus|hu_hu_hu_mus_False|88_98 (ssRNA)
RNA: GGGAGUUCUACAGUCCGACGAUCGCUCUCUUAACUUGAUCUUCAUUGAGAAAUUGGUGCAAGGUUAAGUUUACUUUUCUGUAGCGCAGCUGUUUUGGCUCGUCUGGGUAAUCUCAUCUUCAUUUCUGAUGGUGGUUCAUGAUCCAACAGAGGAUUGAGCAUCA
B10: 33609145_33623031_1095_CDS_ENSG00000100991_ENST00000252015|human|control|control (ssRNA)
RNA: GGGAGUUCUACAGUCCGACGAUCGAACACAAUGGAGGCUUGAUUGUGCUCUGACUCCUCAUUGGCCACUCGCAUCAGGGCAUCUAGCACCAAAGCAUUGUCUAGCCAUGUGUACCACUCUUCCAACUCCUGAAGGAAGCUGGCCAACAGAGGAUUGAGCAUCA
B11: chr2:216981417:216981418:+_ENSG00000079246_ENST00000392132|hu_hu|hu_hu_hu_mus_True|68_98 (ssRNA)
RNA: GGGAGUUCUACAGUCCGACGAUCCUGAUACUGGUCCCCACCAGAAAGGGCAUUAUCAGUGCCAUCUGUACCAAACAGGACUAACGCAAUCUCAUCUUUGCUCUCCGAAAAUACCUGUCGUUGGACAAACAUAGUCAUCACUUUCAACAGAGGAUUGAGCAUCA
B12: chr4:148551591:148551592:-_ENSMUSG00000063077_ENSMUST00000060537|mus_hu|mus_mus_mus_hu_False|1_8 (ssRNA)
RNA: GGGAGUUCUACAGUCCGACGAUCACCUGACAAAAUUAAAUAUCCCUGUAAAUUAGACAAUAAGCAGCAGGCAACAAAGUCUUUGCUUUGGAAUAUGUGCCAGGAAAAGUCAUCUUGUUUUUAGAUCACACCUUUCACAACCAUCAACAGAGGAUUGAGCAUCA
B13: 9406821_9406941_468_CDS_ENSG00000134077_ENST00000452837|human|control|control (ssRNA)
RNA: GGGAGUUCUACAGUCCGACGAUCUGAUGACCCAAGUUUCUCUCUGACUUCAUCUGCAGCUGUUUGCUCAAAGCCAGUAGGUACAGUGGCUCCAAUAGUGACUAGAAGCUCAGAUUCACUUCCGAGGUCACUUUCUGUCACUUGCAACAGAGGAUUGAGCAUCA
B14: 3040280_3040400_681_CDS_ENSG00000078246_ENST00000448120|human|control|control (ssRNA)
RNA: GGGAGUUCUACAGUCCGACGAUCAUUUUCUUCUUUUUCCAAGUACAUAUAGUAGGUGGGGAAGAGACCCCGAUCCAUUCCCCUUUUAUCCCGGAUUAUCCGACAUCUUACUGUGACACCUUGAGGGGCAGGACUAUACACAAACAACAGAGGAUUGAGCAUCA
B15: chr2:135163197:135163198:+_ENSMUSG00000051177_ENSMUST00000110116|mus_hu|motif|central (ssRNA)
RNA: GGGAGUUCUACAGUCCGACGAUCGAAGAGCUGAGGCAUAUAGUUGGAUGAAUCCACACGUGUUCCUUUUGGAUAUAUCCUGCGGAGCUGCAUUUUGUUAUAUUCUACAAAUUCCACUGGAGACUUGGUGAGUUGUUCAAGUCCCAACAGAGGAUUGAGCAUCA
B16: chr6:143133109:143133110:+_ENSMUSG00000030275_ENSMUST00000032413|mus_mus|FALSE|FALSE (ssRNA)
RNA: GGGAGUUCUACAGUCCGACGAUCUUUGGGGAUCCAGCCAUUGUGCGCAUGAAUAGCAUGGAUUUUAGCAAGCUGACGAGCUAUUAGCCUGAAAAUGGCUGGGUUGCAGACAUGCUGCGGGUCCAAAGCUUCGCCCUGGAUAAACAACAGAGGAUUGAGCAUCA
B17: chr14:52433459:52433460:+_ENSG00000186469_ENST00000556752|hu_mus|motif|central (ssRNA)
RNA: GGGAGUUCUACAGUCCGACGAUCGAUGGUUCUCCUUCCUCUCUUUAAAUGCUGUGGACGAGAAAGGCGCCCACUUUGCGGGGAACUCUACAUGUAUGUCCCAGGAGCCCCAACACUCUUCAGCCUCCUCUCAGAGACUUAAAGCAACAGAGGAUUGAGCAUCA
B18: chr7:74146866:74146867:+_ENSG00000077809_ENST00000416070|hu_mus|FALSE|FALSE (ssRNA)
RNA: GGGAGUUCUACAGUCCGACGAUCUUCCUUCGCCAGCAAUAUCCUCUCAAGGCGAGGAAUGCCGUACGUCGACGGCCUUCUAAAAGGAAUCCCUUCAGGAAGCCCUUCUACGUAAAGAUCUUCAACAUGGGACUGGAAAAGAGGCAACAGAGGAUUGAGCAUCA
B19: chr12:39756943:39756944:-_ENSG00000139116_ENST00000544797|hu_mus|hu_hu_hu_mus_False|38_48 (ssRNA)
RNA: GGGAGUUCUACAGUCCGACGAUCGGUUUGGCUGUUACCCCCAAGGGAAUCCUGCAAGAGUCUUGUCAGCUUAGAGUCUCUGUAAGGGACAUGUGUGGCCCUCUUGCUCUUGUCCCCCAAGGCGCUGAUUACAUUCCCAAGAGCCAACAGAGGAUUGAGCAUCA
B20: chr9:19378429:19378430:-_ENSG00000137154_ENST00000315377|hu_mus|FALSE|FALSE (ssRNA)
RNA: GGGAGUUCUACAGUCCGACGAUCACAACAUACUGGCGGACAUCAUCUUCUUUGGAGAGAUUAAAAAGCUUGCGGAUUCUACUAGCCCUUUUAGGUCCCAACCGACGAGGCACAGUAGUGUCUGUCAGUCCAGGAAUAUCCUUCCAACAGAGGAUUGAGCAUCA
B21: chr5:38918441:38918442:-_ENSMUSG00000005103_ENSMUST00000005234|mus_mus|FALSE|FALSE (ssRNA)
RNA: GGGAGUUCUACAGUCCGACGAUCGGACAAGGUACUGUCAGCGUGCCAGGUCAGGAACAAGACAGACAACAGUCAAGAUACAUUAAAAAAAAAAAAAGAAAAAAAUUCCCAUGAUUCCAUUCUUAAAAAUCAAGCACAAAAUCUCAACAGAGGAUUGAGCAUCA
B22: chr4:95690885:95690886:+_ENSMUSG00000028572_ENSMUST00000156910|mus_mus|mus_mus_mus_hu_False|28_28 (ssRNA)
RNA: GGGAGUUCUACAGUCCGACGAUCUUUAGAAAAUGUUAAAUACCAUGCUAAAAUAUUUUCAAAGGCUUAUUUUAUUUUACCAGAAGUCACAGGCAAGCAGACACUACAAACAUACAAGAAAAUGAAACUCAACAAUAUAACUGUCAACAGAGGAUUGAGCAUCA

What follows are binders tested against T1, UNK ZnF1-3 (assay: nsRBNS (natural sequence RNA bind-n-seq); RBNS binding buffer (assumed for nsRBNS): 25 mM Tris pH 7.5, 150 mM KCl, 3 mM MgCl2, 0.01% Triton X-100, 500 ug/ml BSA, 20 U/ml SUPERase-In, 4 C; UNK is unkempt and MSI1 is Musashi-1; names of the RNAs are library labels; protein concentration not given here; high values mean tight binding).

Binder | binding signal
B1 | 2.18 enrichment R
B2 | 1.36 enrichment R
B3 | 0.929 enrichment R
B4 | 1.28 enrichment R
B5 | 0.71 enrichment R
B6 | 0.846 enrichment R
B7 | 1.1 enrichment R
B8 | 0.538 enrichment R
B9 | 0.427 enrichment R
B10 | 1.09 enrichment R
B11 | 0.885 enrichment R
B12 | 1.33 enrichment R
B13 | 0.351 enrichment R
B14 | 0.904 enrichment R
B15 | 0.758 enrichment R
B16 | 0.755 enrichment R
B17 | 0.935 enrichment R
B18 | 0.61 enrichment R
B19 | 0.724 enrichment R
B20 | 0.949 enrichment R
B21 | 2.92 enrichment R
B22 | 2.06 enrichment R
